According to PubChem BioAssay AID624296 (National Center for Advancing Translational Sciences (NCATS), 2012):
About 9,900 (2.8%) of roughly 350,000 compounds were called active. The inconclusive results got no clear call from the source; some entries with a clear call stand among them for comparison. Calls come from the whole dose curve; as a rule, active = well fitted activation curve with a large enough effect; inconclusive = small, poorly fitted or top-dose-only effect; inactive = no such curve, though single readings can be large or run the other way. Potencies of inconclusive entries are left out as doubtful fits.

Assay: A quantitative high throughput screen for small molecules that induce DNA re-replication in MCF 10a normal breast cells. For activity, positive = re-replication: % of control where 0% means no effect. Note: nearly all actives have a fitted effect of over 50% in size.
Conditions: MCF 10A DNA re-replication, Hoechst nuclear intensity, 48 h; activity, positive = re-replication: at 46.1 µM (top of the series)
Potency is the fitted concentration of half-maximal effect; tags give direction and shape of the fitted curve.

| SMILES | Potency | activity, positive = re-replication |
| --- | --- | --- |
| CCOC(=O)C1=C(O)/C(=C/c2ccc(-c3ccccc3C(=O)O)o2)SC1=Nc1ccc(C)cc1 | active: 13 µM | – |
| CCOC(=O)N1CCN(C(=O)C2CCN(S(=O)(=O)c3ccc(OC)cc3)CC2)CC1 | inconclusive [activator, single point] | – |
| CCC(C)(C)n1nnnc1C(c1cc2ccc(C)cc2[nH]c1=O)N(Cc1cccnc1)Cc1ccco1 (stereo not drawn) | inconclusive [activator, single point] | – |
| CCn1nc(C)c(CNC(=O)c2ccc(OC3CCN(Cc4ccccn4)CC3)cc2)c1C | – | inactive: -2.12% |
| CC1=C(/C=C/C(C)=C/C=C/C(C)=C/C(=O)Oc2c(C)c(C)c3c(c2C)CC[C@@](C)(CCC[C@H](C)CCC[C@H](C)CCCC(C)C)O3)C(C)(C)CCC1 | – | inactive: 13.6% |
| COc1ccc(CCNS(=O)(=O)c2cccc([N+](=O)[O-])c2)cc1OC | inconclusive [activator, single point] | – |
| CC(C)Oc1ccc(C(=O)Nc2cccc(S(=O)(=O)N3CCCC3)c2)cc1 | inconclusive [activator, single point] | – |
| Cc1ccc(OCc2nnc(SCCN3CCOCC3)n2C)cc1 | inconclusive [activator, single point] | – |
| COc1ccc(Cl)cc1NC(=O)CSc1nc(-c2ccccc2)cc(=O)[nH]1 | inconclusive [activator, single point] | – |
| NNC(=O)c1cc2ccccc2[nH]1 | active: 11.6 µM | – |
| CCCn1nnc(NC(=O)c2ccc(Cl)cc2Cl)n1 | inconclusive [activator, single point] | – |
| Cc1ccc(NC(=O)CCCN2C(=O)c3cccc4cccc(c34)C2=O)cc1 | inconclusive [activator, partial curve, poor fit] | – |
| c1ccc(-c2csc3ncnc(NCc4ccccn4)c23)cc1 | – | inactive: 3.75% |
| Cc1ccc(C(=O)OCC(=O)N2C(C)CCCC2C)cc1S(=O)(=O)N1CCOCC1 (stereo not drawn) | – | inactive: 4.04% |
| CCn1c(SCC(=O)N2CCCc3ccccc32)nc2cccnc21 | inconclusive [activator, partial curve, poor fit] | – |
| C/C=C/c1ccc(OCCCCNCc2ccco2)c(OC)c1 | – | inactive: 4.09% |
| Cc1ccc(NC(=O)CNC(=O)N2CC(=O)Nc3ccccc32)cc1F | inconclusive [activator, single point] | – |
| CCOC(=O)c1ccc(NC(=S)N2CCSC2c2ccc(Br)cc2)cc1 (stereo not drawn) | inconclusive [activator, partial curve, poor fit] | – |
| COC(=O)c1ccccc1NC(=O)CCCN1C(=O)C(c2ccccc2)Oc2cccnc21 (stereo not drawn) | inconclusive [activator, partial curve, poor fit] | – |
| OCCN(Cc1ccccc1)Cc1cccc(C(F)(F)F)c1 | inconclusive [activator, partial curve, poor fit] | – |
| Cc1ccc(S(=O)(=O)c2cc3ccccc3oc2=Nc2ccc3c(c2)OCCO3)cc1 | – | inactive: 2.04% |
| COc1ccc2c(COC(=O)c3cccc(S(=O)(=O)NCC(C)C)c3)cc(=O)oc2c1 | inconclusive [activator, full curve, poor fit] | – |

| SMILES | Potency | activity, positive = re-replication |
| --- | --- | --- |
| C=CCCC1CN(Cc2ccco2)S(=O)(=O)c2c(F)cccc2O1 (stereo not drawn) | inconclusive [activator, partial curve, poor fit] | – |
| CCn1c(P(C)(=O)O)nc2cc(NC(=O)c3ccccc3Cl)ccc21 | inconclusive [activator, full curve, poor fit] | – |
| Cc1c(CCO)sc[n+]1CC(=O)OC12CC3CC(CC(C3)C1)C2 | inconclusive [activator, partial curve, poor fit] | – |
| CC(=O)c1ccc(NC(=O)Nc2ccc([N+](=O)[O-])cc2C)cc1 | inconclusive [activator, partial curve, poor fit] | – |
| COc1cc(C(=O)OCC(=O)Nc2cc(C)on2)ccc1OCc1ccccc1Cl | inconclusive [activator, partial curve, poor fit] | – |
| CC(C)Cc1csc(NC(=O)c2ccccc2Cl)c1C(=O)O | inconclusive [activator, single point] | – |
| O=C(C1CCC(C(=O)N2CCc3ccccc32)CC1)N1CCc2ccccc21 (stereo not drawn) | – | inactive: 0.753% |
| COc1ccc(C(=O)Nc2ccc(C(=O)O)cc2NC(=O)c2ccc(OC)cc2)cc1 | inconclusive [activator, partial curve, poor fit] | – |
| O=C(CCN(CCO)Cc1ccccc1)Nc1ccc(Br)cc1 | – | inactive: 18.4% |
| Cc1ccc(NC2=C(NC(=O)c3ccccc3)C(=O)c3ccccc3C2=O)cc1Cl | – | inactive: 26.8% |
| CC(=O)c1cccc2c(O)c(C3=Nc4ccccc4C3=O)[nH]c12 | inconclusive [activator, single point] | – |
| c1ccc2c(c1)[nH]c1nc3nncn3nc12 | inconclusive [activator, single point] | – |
| CCCCn1c(SCc2c(C)noc2C)nc2cc(S(N)(=O)=O)ccc21 | inconclusive [activator, partial curve, poor fit] | – |
| Cc1ccc(CNC(=O)Nc2ccccc2)n1C | – | inactive: -3.57% |
| CN(C)c1ccc(N/C=C/C(=O)c2ccco2)cc1 | – | inactive: 28.5% |
| Cc1ccc(/C=N/Nc2nc(C(C)(C)C)cs2)o1 | active: 9.2 µM | – |
| CN(C)c1ccc(C(=O)NCC(c2cccs2)N2CCOCC2)cc1 (stereo not drawn) | – | inactive: 3.49% |
| CC1(C)CC2CC(C)(CN2/C=N/c2sc3c(c2C#N)CC(C)(C)NC3(C)C)C1 (stereo not drawn) | – | inactive: 18.6% |
| CCOC(=O)C1CCN(C(=O)CCc2c(C)nc3cc(-c4ccccc4)nn3c2C)CC1 | inconclusive [activator, full curve, poor fit] | – |
| O=C(CCc1ccccc1)NC(=S)Nc1ccc(S(=O)(=O)N2CCOCC2)cc1 | inconclusive [activator, partial curve, poor fit] | – |
| COc1ccccc1C(C)NC(=O)c1ccccc1SCC(=O)N1CCCC1 (stereo not drawn) | inconclusive [activator, partial curve, poor fit] | – |
